Experimental data reported in paper PMC3591366, “MUC1* Ligand, NM23-H1, Is a Novel Growth Factor That Maintains Human Stem Cells in a More Naïve State” (PLoS ONE, 2013).

Biological target: the molecule itself
Assay: SEC + native gel or EMSA; multimer state of purified NM23-H1 preparations by size exclusion chromatography, native gel (5 and 10 ug protein per well) and Western blot

B1: NM23-H1_(S120G)-dimer (natural protein)
chain: not shown
notes: differs in the multimer state (primarily dimer); also called NM23_(S120G)-dimer; NM23-H1 dimer
For B1, which “stoichiometry N” value is on record?
The value was 2.

B2: NM23-H1_(S120G)-hexamer (natural protein)
chain: not shown
notes: differs in the multimer state (predominantly hexamer); also called NM23_(S120G)-hexamer; NM23-H1 S120G (soluble fraction)
Which “stoichiometry N” value does the source give for B2 here?
The value was 6.
